Reference: article PMC9911399, “Two distinct binding modes provide the RNA-binding protein RbFox with extraordinary sequence specificity”
Positions count from the first letter of the chain named. The list shows a part of the results.

T1: RBFOX1 RRM (Homo sapiens, UniProt Q9NWB1 109-208)
T1 sequence: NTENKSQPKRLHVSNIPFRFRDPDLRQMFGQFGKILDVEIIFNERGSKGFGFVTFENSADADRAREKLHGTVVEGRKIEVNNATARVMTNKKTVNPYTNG

B1: UGCGGAA (DNA:RNA)
RNA: GGGAGACCGGAAUUCAGAUUGUCCUGCGGAAUUAAAUCCCGUCGUAGCCACCA
DNA 1: CAATCTGAATTCCGGTCTCCC
DNA 2: TGGTGGCTACGACGGGATT
B2: CCAUAAU (DNA:RNA)
RNA: B1 RNA with U25C, G26C, C27A, G28U, G29A, A31U
DNA 1: CAATCTGAATTCCGGTCTCCC
DNA 2: TGGTGGCTACGACGGGATT
B3: CCGACAA (DNA:RNA)
RNA: B1 RNA with U25C, G26C, C27G, G28A, G29C
DNA 1: CAATCTGAATTCCGGTCTCCC
DNA 2: TGGTGGCTACGACGGGATT
B4: AACCACG (DNA:RNA)
RNA: B1 RNA with U25A, G26A, G28C, G29A, A30C, A31G
DNA 1: CAATCTGAATTCCGGTCTCCC
DNA 2: TGGTGGCTACGACGGGATT
B5: CUUAUCC (DNA:RNA)
RNA: GGGAGACCGGAAUUCAGAUUGUCCCUUAUCCUUAAAUCCCGUCGUAGCCACCA
DNA 1: CAATCTGAATTCCGGTCTCCC
DNA 2: TGGTGGCTACGACGGGATT
B6: AGCUCCC (DNA:RNA)
RNA: B5 RNA with C25A, U26G, U27C, A28U, U29C
DNA 1: CAATCTGAATTCCGGTCTCCC
DNA 2: TGGTGGCTACGACGGGATT
B7: CGGUCGC (DNA:RNA)
RNA: B5 RNA with U26G, U27G, A28U, U29C, C30G
DNA 1: CAATCTGAATTCCGGTCTCCC
DNA 2: TGGTGGCTACGACGGGATT
B8: UAGAACG (DNA:RNA)
RNA: B5 RNA with C25U, U26A, U27G, U29A, C31G
DNA 1: CAATCTGAATTCCGGTCTCCC
DNA 2: TGGTGGCTACGACGGGATT
B9: CAUCAUC (DNA:RNA)
RNA: B5 RNA with U26A, A28C, U29A, C30U
DNA 1: CAATCTGAATTCCGGTCTCCC
DNA 2: TGGTGGCTACGACGGGATT
B10: UGGGGUC (DNA:RNA)
RNA: B1 RNA with C27G, A30U, A31C
DNA 1: CAATCTGAATTCCGGTCTCCC
DNA 2: TGGTGGCTACGACGGGATT
B11: CGUGUGG (DNA:RNA)
RNA: B5 RNA with U26G, A28G, C30G, C31G
DNA 1: CAATCTGAATTCCGGTCTCCC
DNA 2: TGGTGGCTACGACGGGATT
B12: CGAUUUC (DNA:RNA)
RNA: B5 RNA with U26G, U27A, A28U, C30U
DNA 1: CAATCTGAATTCCGGTCTCCC
DNA 2: TGGTGGCTACGACGGGATT
B13: CAUGUCA (DNA:RNA)
RNA: B5 RNA with U26A, A28G, C31A
DNA 1: CAATCTGAATTCCGGTCTCCC
DNA 2: TGGTGGCTACGACGGGATT
B14: AGAUAUU (DNA:RNA)
RNA: B1 RNA with U25A, C27A, G28U, G29A, A30U, A31U
DNA 1: CAATCTGAATTCCGGTCTCCC
DNA 2: TGGTGGCTACGACGGGATT
B15: AGCCCCA (DNA:RNA)
RNA: B1 RNA with U25A, G28C, G29C, A30C
DNA 1: CAATCTGAATTCCGGTCTCCC
DNA 2: TGGTGGCTACGACGGGATT
B16: UUCGCGC (DNA:RNA)
RNA: B1 RNA with G26U, G29C, A30G, A31C
DNA 1: CAATCTGAATTCCGGTCTCCC
DNA 2: TGGTGGCTACGACGGGATT
B17: GGCCUGA (DNA:RNA)
RNA: B1 RNA with U25G, G28C, G29U, A30G
DNA 1: CAATCTGAATTCCGGTCTCCC
DNA 2: TGGTGGCTACGACGGGATT
B18: ACAUCAC (DNA:RNA)
RNA: B5 RNA with C25A, U26C, U27A, A28U, U29C, C30A
DNA 1: CAATCTGAATTCCGGTCTCCC
DNA 2: TGGTGGCTACGACGGGATT
B19: UAGCAAU (DNA:RNA)
RNA: B1 RNA with G26A, C27G, G28C, G29A, A31U
DNA 1: CAATCTGAATTCCGGTCTCCC
DNA 2: TGGTGGCTACGACGGGATT
B20: GGUUGCC (DNA:RNA)
RNA: B5 RNA with C25G, U26G, A28U, U29G
DNA 1: CAATCTGAATTCCGGTCTCCC
DNA 2: TGGTGGCTACGACGGGATT
B21: AAGCUUA (DNA:RNA)
RNA: B5 RNA with C25A, U26A, U27G, A28C, C30U, C31A
DNA 1: CAATCTGAATTCCGGTCTCCC
DNA 2: TGGTGGCTACGACGGGATT
B22: GUUUGGU (DNA:RNA)
RNA: B5 RNA with C25G, A28U, U29G, C30G, C31U
DNA 1: CAATCTGAATTCCGGTCTCCC
DNA 2: TGGTGGCTACGACGGGATT
B23: UAGCCAC (DNA:RNA)
RNA: B1 RNA with G26A, C27G, G28C, G29C, A31C
DNA 1: CAATCTGAATTCCGGTCTCCC
DNA 2: TGGTGGCTACGACGGGATT
B24: AUAUUCC (DNA:RNA)
RNA: B5 RNA with C25A, U27A, A28U
DNA 1: CAATCTGAATTCCGGTCTCCC
DNA 2: TGGTGGCTACGACGGGATT
B25: GCUGGCA (DNA:RNA)
RNA: B1 RNA with U25G, G26C, C27U, A30C
DNA 1: CAATCTGAATTCCGGTCTCCC
DNA 2: TGGTGGCTACGACGGGATT
B26: GGAUGUU (DNA:RNA)
RNA: B1 RNA with U25G, C27A, G28U, A30U, A31U
DNA 1: CAATCTGAATTCCGGTCTCCC
DNA 2: TGGTGGCTACGACGGGATT
B27: ACGCACC (DNA:RNA)
RNA: B5 RNA with C25A, U26C, U27G, A28C, U29A
DNA 1: CAATCTGAATTCCGGTCTCCC
DNA 2: TGGTGGCTACGACGGGATT
B28: AUUUUUU (DNA:RNA)
RNA: B5 RNA with C25A, A28U, C30U, C31U
DNA 1: CAATCTGAATTCCGGTCTCCC
DNA 2: TGGTGGCTACGACGGGATT
B29: CCGCGGC (DNA:RNA)
RNA: B5 RNA with U26C, U27G, A28C, U29G, C30G
DNA 1: CAATCTGAATTCCGGTCTCCC
DNA 2: TGGTGGCTACGACGGGATT
B30: CAUCUGA (DNA:RNA)
RNA: B5 RNA with U26A, A28C, C30G, C31A
DNA 1: CAATCTGAATTCCGGTCTCCC
DNA 2: TGGTGGCTACGACGGGATT
B31: CAAUCUA (DNA:RNA)
RNA: B5 RNA with U26A, U27A, A28U, U29C, C30U, C31A
DNA 1: CAATCTGAATTCCGGTCTCCC
DNA 2: TGGTGGCTACGACGGGATT

biological target: T1, RBFOX1 RRM; assay: EMSA; HiTS-Eq, 1 nM pool, 10 min; buffer printed only for the single-RNA assays: 10 mM Tris pH 7.5, 150 mM NaCl, 3.4 mM EDTA, 0.001% NP-40, 30 C; conditions: tags: His6 N-terminal (pET28a); label: 5' 32P
In short: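 These values rest on relative association constants, computed from read-count changes of each RNA species versus the control reaction and normalised to the cognate motif. Reads came from free RNA recovered by 8% native PAGE after purified RbFox RRM (wild type or mutant) at increasing concentrations was equilibrated for 10 min in 50 µL with 1 nM of a 5′-radiolabelled pool with 7 randomized nucleotides and DNA-annealed flanks.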

| Binder | binding signal |
| --- | --- |
| B1 | 0.0165 KA relative to UGCAUGU |
| B2 | 0.00169 KA relative to UGCAUGU |
| B3 | 0.00204 KA relative to UGCAUGU |
| B4 | 0.00105 KA relative to UGCAUGU |
| B5 | 0.0009 KA relative to UGCAUGU |
| B6 | 0.00251 KA relative to UGCAUGU |
| B7 | 0.00974 KA relative to UGCAUGU |
| B8 | 0.017 KA relative to UGCAUGU |
| B9 | 0.000831 KA relative to UGCAUGU |
| B10 | 0.0387 KA relative to UGCAUGU |
| B11 | 0.00978 KA relative to UGCAUGU |
| B12 | 0.00946 KA relative to UGCAUGU |
| B13 | 0.00534 KA relative to UGCAUGU |
| B14 | 0.00865 KA relative to UGCAUGU |
| B15 | 0.00108 KA relative to UGCAUGU |
| B16 | 0.014 KA relative to UGCAUGU |

| Binder | binding signal |
| --- | --- |
| B17 | 0.0134 KA relative to UGCAUGU |
| B18 | 0.00395 KA relative to UGCAUGU |
| B19 | 0.00857 KA relative to UGCAUGU |
| B20 | 0.0278 KA relative to UGCAUGU |
| B21 | 0.00275 KA relative to UGCAUGU |
| B22 | 0.0232 KA relative to UGCAUGU |
| B23 | 0.00391 KA relative to UGCAUGU |
| B24 | 0.000456 KA relative to UGCAUGU |
| B25 | 0.0266 KA relative to UGCAUGU |
| B26 | 0.0216 KA relative to UGCAUGU |
| B27 | 0.00708 KA relative to UGCAUGU |
| B28 | 0.007 KA relative to UGCAUGU |
| B29 | 0.00923 KA relative to UGCAUGU |
| B30 | 0.00898 KA relative to UGCAUGU |
| B31 | 0.00161 KA relative to UGCAUGU |
